Test results published in a collection of fitness landscapes (doi:10.1038/s41467-024-54723-y).
The full ranking holds about 18,000 sequences; the median of “TetR repression strength (sort-seq, GFP reporter)” is about 0.23, and the highest 2% start at about 0.68. Some of the results follow.

The sequences below were run against TetR (class B, Tn10) (UniProt P04483) (assay: TetR repression strength (sort-seq, GFP reporter) (relative to tetO2 = 1); higher = stronger repression). Conditions: E. coli.
Sequence of UniProt P04483 (P04483 whole entry): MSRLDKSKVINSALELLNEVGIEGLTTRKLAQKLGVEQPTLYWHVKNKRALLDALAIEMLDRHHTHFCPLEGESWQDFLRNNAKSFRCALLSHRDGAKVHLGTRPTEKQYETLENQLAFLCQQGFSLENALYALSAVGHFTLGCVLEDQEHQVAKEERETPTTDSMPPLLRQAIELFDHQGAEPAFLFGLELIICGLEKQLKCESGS
In short: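 Repression strength is the top bin index plus one minus the read-weighted mean bin, relative to the unaltered operator's value. A low-copy library in E. coli SIG10-MAX randomized eight operator positions between a constitutive promoter and sfGFP, with TetR expressed constitutively; cells grew 5 h at 37 °C in LB with 50 µg/mL chloramphenicol and 10^6 were FACS-sorted into 13 bins that were each Illumina-sequenced. Three independent transformations were averaged, keeping only members with ≥30 reads in all replicates and CV ≤0.5.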
TCCCTTCTAGTGGTGGAGA showed a TetR repression strength of 0.312. In the case of TCCCCCAGAGTGTGTGAGA, the TetR repression strength is reported as 0.106. In the case of TCCCATGGAGTCTGGGAGA, the TetR repression strength is reported as 0.351. With TCCCGGCGAGTCTTGGAGA the TetR repression strength was 0.19. Work on TCCCAGTTAGTGGAGGAGA yielded a TetR repression strength of 0.149. TCCCGCAGAGTATAAGAGA was tested, and the TetR repression strength was 0.177. In the case of TCCCCGGTAGTGGTTGAGA, the TetR repression strength is reported as 0.286. Sequence TCCCGACCAGTTATTGAGA has a TetR repression strength of 0.545. With TCCCTGCCAGTTGATGAGA the TetR repression strength was 0.33. TCCCCTTTAGTATGTGAGA was tested, and the TetR repression strength was 0.435. TCCCGCTGAGTGCACGAGA gave a TetR repression strength of 0.0645. In the case of TCCCTTGGAGTGTACGAGA, the TetR repression strength is reported as 0.234. TCCCCTGGAGTCTTCGAGA was tested, and the TetR repression strength was 0.274. TCCCTTGCAGTCAAGGAGA showed a TetR repression strength of 0.268. TCCCCGATAGTTACAGAGA showed a TetR repression strength of 0.311. TCCCGGATAGTTAACGAGA showed a TetR repression strength of 0.261. Sequence TCCCCGGGAGTCAGGGAGA has a TetR repression strength of 0.145. In the case of TCCCATAAAGTACGGGAGA, the TetR repression strength is reported as 0.264. TCCCGAGGAGTCAATGAGA showed a TetR repression strength of 0.31. In the case of TCCCCTGGAGTGTAGGAGA, the TetR repression strength is reported as 0.407. Sequence TCCCCCTAAGTTTCAGAGA has a TetR repression strength of 0.414. Sequence TCCCATTAAGTCTGCGAGA has a TetR repression strength of 0.2. With TCCCGTAGAGTCTGGGAGA the TetR repression strength was 0.201. Sequence TCCCTCCGAGTATCTGAGA has a TetR repression strength of 0.323. Work on TCCCATCCAGTCATTGAGA yielded a TetR repression strength of 0.364. Sequence TCCCATGGAGTTTCTGAGA has a TetR repression strength of 0.0409. For TCCCGGGCAGTACGGGAGA, the TetR repression strength was 0.168. TCCCATACAGTCGTAGAGA was tested, and the TetR repression strength was 0.0752. Work on TCCCGCACAGTGCGGGAGA yielded a TetR repression strength of 0.113. TCCCGGCCAGTTTCAGAGA gave a TetR repression strength of 0.298. Work on TCCCCCGGAGTTGGGGAGA yielded a TetR repression strength of 0.159. Sequence TCCCTACTAGTGAATGAGA has a TetR repression strength of 0.426. In the case of TCCCGTACAGTTCTTGAGA, the TetR repression strength is reported as 0.292. Sequence TCCCAAACAGTCCTCGAGA has a TetR repression strength of 0.391. With TCCCAACCAGTTTTAGAGA the TetR repression strength was 0.399. In the case of TCCCATATAGTCGGTGAGA, the TetR repression strength is reported as 0.355. Work on TCCCGGGTAGTGCCGGAGA yielded a TetR repression strength of 0.147. Sequence TCCCGCGAAGTCAAGGAGA has a TetR repression strength of 0.32. TCCCAAAGAGTCAATGAGA showed a TetR repression strength of 0.357. Sequence TCCCTGGGAGTGCTCGAGA has a TetR repression strength of 0.0982. In the case of TCCCACGTAGTAAGGGAGA, the TetR repression strength is reported as 0. TCCCTGCCAGTAATAGAGA was tested, and the TetR repression strength was 0.411. Sequence TCCCTCTAAGTTCGGGAGA has a TetR repression strength of 0.144. Work on TCCCGAATAGTGACAGAGA yielded a TetR repression strength of 0.464. TCCCGCAAAGTCAGGGAGA was tested, and the TetR repression strength was 0.273. For TCCCAGCAAGTAGTCGAGA, the TetR repression strength was 0.249. For TCCCGTCCAGTGCGTGAGA, the TetR repression strength was 0.139. In the case of TCCCACGTAGTATCAGAGA, the TetR repression strength is reported as 0.0648. Sequence TCCCAATCAGTTGTAGAGA has a TetR repression strength of 0.439. Work on TCCCCAAGAGTTTCGGAGA yielded a TetR repression strength of 0.254. Sequence TCCCAGCTAGTACAAGAGA has a TetR repression strength of 0.242. With TCCCAGCGAGTCCTCGAGA the TetR repression strength was 0.534. With TCCCGTCCAGTGATAGAGA the TetR repression strength was 0.464. Work on TCCCTCAAAGTGTGGGAGA yielded a TetR repression strength of 0.454. TCCCGTCAAGTTATTGAGA was tested, and the TetR repression strength was 0.167. TCCCACATAGTGCATGAGA gave a TetR repression strength of 0.288. Sequence TCCCGTACAGTATGGGAGA has a TetR repression strength of 0.189. In the case of TCCCGACAAGTTCACGAGA, the TetR repression strength is reported as 0. TCCCCGGAAGTGCGGGAGA was tested, and the TetR repression strength was 0.265. TCCCCGGTAGTGCACGAGA was tested, and the TetR repression strength was 0.164. In the case of TCCCGCGGAGTTGAGGAGA, the TetR repression strength is reported as 0.0769. With TCCCCACAAGTGGATGAGA the TetR repression strength was 1.22. For TCCCCAAGAGTGGATGAGA, the TetR repression strength was 0.19. In the case of TCCCGCTTAGTAGAGGAGA, the TetR repression strength is reported as 0.488. TCCCTATGAGTCCGAGAGA showed a TetR repression strength of 0.0546. TCCCGTTAAGTTTACGAGA was tested, and the TetR repression strength was 0.06. TCCCAATTAGTGATTGAGA showed a TetR repression strength of 0.473. TCCCCGTTAGTGTTGGAGA showed a TetR repression strength of 0.677. Work on TCCCGTCTAGTCGTAGAGA yielded a TetR repression strength of 0.317. With TCCCATAAAGTAGAGGAGA the TetR repression strength was 0.174. TCCCGGGTAGTCAGGGAGA showed a TetR repression strength of 0.176. For TCCCCGGGAGTTAATGAGA, the TetR repression strength was 0.517. Sequence TCCCGTTTAGTTGATGAGA has a TetR repression strength of 0.0401. TCCCGTCGAGTATTTGAGA showed a TetR repression strength of 0.117. In the case of TCCCGTAGAGTACAGGAGA, the TetR repression strength is reported as 0.229. TCCCTCACAGTGGGTGAGA showed a TetR repression strength of 0.098. TCCCTCATAGTGGTGGAGA was tested, and the TetR repression strength was 0.412. TCCCAAAAAGTGGATGAGA was tested, and the TetR repression strength was 0.374. For TCCCTGTGAGTGCCGGAGA, the TetR repression strength was 0.164. In the case of TCCCTGGAAGTTGGGGAGA, the TetR repression strength is reported as 0.151. Work on TCCCGGTTAGTGTCAGAGA yielded a TetR repression strength of 0.222. With TCCCGCCGAGTCGGTGAGA the TetR repression strength was 0.156. TCCCTTGCAGTGAATGAGA gave a TetR repression strength of 0.374. Work on TCCCGACTAGTCTAAGAGA yielded a TetR repression strength of 0.39. Sequence TCCCTTGCAGTGATTGAGA has a TetR repression strength of 0.596. For TCCCTGAAAGTTGGAGAGA, the TetR repression strength was 0.166. Work on TCCCGCGCAGTCGGCGAGA yielded a TetR repression strength of 0.161. TCCCATTGAGTGATGGAGA gave a TetR repression strength of 0.377. Sequence TCCCTATCAGTTACCGAGA has a TetR repression strength of 0.663. Sequence TCCCTTTGAGTGGACGAGA has a TetR repression strength of 0.246. In the case of TCCCTGATAGTCCGTGAGA, the TetR repression strength is reported as 0.185. TCCCGGTAAGTCGGCGAGA showed a TetR repression strength of 0.126. For TCCCGGCGAGTGTCTGAGA, the TetR repression strength was 0.388. Sequence TCCCATCCAGTCCGGGAGA has a TetR repression strength of 0.302. With TCCCGTCGAGTTGAAGAGA the TetR repression strength was 0.603. With TCCCTTCCAGTGTACGAGA the TetR repression strength was 0.338. Work on TCCCGGAAAGTCTAGGAGA yielded a TetR repression strength of 0.216. TCCCTAGTAGTTACCGAGA gave a TetR repression strength of 0.12. Work on TCCCTGCAAGTGGGCGAGA yielded a TetR repression strength of 0.224. Sequence TCCCCGGGAGTTCTCGAGA has a TetR repression strength of 0.0879. In the case of TCCCCATGAGTCTGTGAGA, the TetR repression strength is reported as 0.164. TCCCCTTTAGTCTGCGAGA was tested, and the TetR repression strength was 0.429. TCCCAAGCAGTATTCGAGA gave a TetR repression strength of 0.318. In the case of TCCCTACTAGTGCATGAGA, the TetR repression strength is reported as 0.326. With TCCCTCCAAGTACTTGAGA the TetR repression strength was 0.381. With TCCCTGAGAGTCGAAGAGA the TetR repression strength was 1.18. In the case of TCCCTTGGAGTGTGGGAGA, the TetR repression strength is reported as 0.2. For TCCCGAAAAGTGGAGGAGA, the TetR repression strength was 0.224. TCCCTGCGAGTTATCGAGA showed a TetR repression strength of 0.126. Sequence TCCCTGTTAGTGCATGAGA has a TetR repression strength of 0.0225. Work on TCCCGTTCAGTTCTCGAGA yielded a TetR repression strength of 0.167. With TCCCTTGAAGTAATGGAGA the TetR repression strength was 0.405. With TCCCGGTTAGTACCGGAGA the TetR repression strength was 0.272. TCCCATGAAGTGTATGAGA showed a TetR repression strength of 0.102. TCCCTAAGAGTGTGCGAGA was tested, and the TetR repression strength was 0.258. Work on TCCCCACCAGTCCTCGAGA yielded a TetR repression strength of 0.528. For TCCCAAAAAGTGAGTGAGA, the TetR repression strength was 0.14. With TCCCGAGTAGTACGTGAGA the TetR repression strength was 0.164. In the case of TCCCGACTAGTGATAGAGA, the TetR repression strength is reported as 0.632. With TCCCGTGGAGTGCAGGAGA the TetR repression strength was 0.187. Work on TCCCAGGGAGTGGTGGAGA yielded a TetR repression strength of 0.202. TCCCGGCTAGTTACTGAGA was tested, and the TetR repression strength was 0.166. Sequence TCCCAGGGAGTACACGAGA has a TetR repression strength of 0.0214. Sequence TCCCCACGAGTTCGAGAGA has a TetR repression strength of 0.207. Sequence TCCCCTGGAGTCTGGGAGA has a TetR repression strength of 0.281. Sequence TCCCTTACAGTATAGGAGA has a TetR repression strength of 0.064. TCCCTAGAAGTACTAGAGA showed a TetR repression strength of 0.152. TCCCTGTAAGTTTGAGAGA was tested, and the TetR repression strength was 0.0173. TCCCACGAAGTCAGCGAGA gave a TetR repression strength of 0.445. TCCCTTCTAGTTGGCGAGA gave a TetR repression strength of 0.281.
